Among all 52,000 compounds or so, about 1,700 (3.3%) were called active. No stated cut-off is given here; in the data, active means survival mostly below about 52% (no sharp cut-off); inactive means mostly above about 56%. This is one part of the list.

For the assay, the system named is Wild type. Briefly: S. aureus survival, RN4220 and DeltatarO strains – OD600, teichoic acid synthesis inhibitors, primary screen (AID 463173). To be noted: S. aureus RN4220 wild type/DeltatarO growth, OD600, 18 h, active compounds read low, screened at 18.75 µg/mL (by protocol).
In the case of `N#CCC(=O)N1CCN(c2ccccc2)CC1`, the survival was inactive: 106%.

In the case of `COc1ccccc1-c1nnc(SCC(=O)c2ccc(F)cc2)n1-c1ccccc1`, the survival was active: 0%. Consider `CCc1ccc(CNC(=O)CN2C(=O)CCn3nc(-c4cn(C)c5ccccc45)cc32)cc1`, for which the survival is inactive: 72%. To `O=C(Nc1cccc(Cl)c1)C1CCCN1S(=O)(=O)c1cccc2cccnc12` (stereo not drawn) belongs inactive: 120%. `Cn1nnnc1SCCNCc1ccc(OCc2ccc(Cl)cc2)cc1`: the survival is inactive: 68%. The result for `Cc1cc(Cl)ccc1OCc1cc(=O)n2c3c(sc2n1)CCCC3` reads inactive: 81%; that for `Cc1ccc(CN2C(=O)c3ccccc3Sc3ccc(C(=O)NCCCN4CCOCC4)cc32)cc1`, inactive: 131%; that for `CCc1ccc(C2=C(C)C(N3CCC(C(=O)NCCc4ccco4)CC3)=NS2(=O)=O)cc1`, inactive: 51%.

Consider `COc1cccc(OCC(=O)Nc2nnc3n2CCS3)c1`, for which the survival is inactive: 68%. To `Cc1oc(-c2cccc(Cl)c2)nc1CN1CCC(C(=O)NCCc2ccc(Cl)cc2)CC1` belongs inactive: 88%; to `Cc1cccc(NC(=O)CSc2nc(=O)n(Cc3cccnc3)c3c2CCC3)c1C`, inactive: 73%; to `O=C(NC1CCCCC1)N(Cc1cc2cc3c(cc2[nH]c1=O)OCCO3)C1CCCCC1`, inactive: 104%.

Regarding `COc1ccc(C(=O)Nc2ccc(N3CCOCC3)c(C(F)(F)F)c2)cc1OC`, the survival is inactive: 75%. `COc1ccccc1NC(=O)c1cc(S(=O)(=O)N2CCc3ccccc32)ccc1F`: the survival is inactive: 71%. As to `COc1ccc(NC(=O)c2cc3c(=O)n(Cc4cccnc4)ccc3nc2C)cc1Cl`, the survival was inactive: 124%. To `C=Cc1ccc(Cn2c(=O)cc(C)c3c(C)nn(C)c32)cc1` belongs active: 0%; to `Cc1cccc(N2CCN(c3c4c(nc5nncn35)CCC4)CC2)c1C`, inactive: 84%; to `CN(C)c1ccc(C(CNS(=O)(=O)c2ccc(F)cc2)N2CCc3ccccc32)cc1` (stereo not drawn), active: 0%.

With `COc1cc(-c2nnc(SCC(=O)Oc3ccccc3Cl)o2)cc(OC)c1OC`, the survival is inactive: 82%.

On to `COc1ccc(S(=O)(=O)c2cn(Cc3ccccc3)c3ccc(OC)cc3c2=O)cc1`, for which the survival was inactive: 134%. `Cc1cc(C)n(C(=O)CNc2ccccc2Cl)n1`: the survival was inactive: 103%. On to `COc1ccccc1NC(=O)c1cc(C2CC2)nc2c1c(C)nn2-c1ccc(C)cc1`, for which the survival was inactive: 88%.

Turning to `CC(C)CCN(Cc1ccco1)C(=O)Cn1ncc2c([nH]c3ccccc32)c1=O`, the survival was inactive: 82%. Turning to `O=c1c(N2CCc3ccccc3C2)csc2ccc(Br)cc12`, the survival is inactive: 80%. As for `CCOC(=O)c1cc(-c2ccccc2)n(CCCC(=O)Nc2cc(C)ccc2OC)c1C`, the survival is inactive: 84%. To `Cc1cccc(C(=O)Nc2ccc(N3CCN(c4ccc(F)cc4)CC3)c(C(=O)O)c2)c1` belongs inactive: 63%. Take `COc1ccccc1Cc1nc2ccccc2nc1SCC(=O)N1CCC(C)CC1`: the survival is inactive: 70%. Regarding `Nc1cc(S(=O)(=O)C(F)(F)F)cc(S(=O)(=O)C(F)(F)F)c1`, the survival was inactive: 110%. As for `O=C(NC1CCCCCC1)N1CCOCC1`, the survival was inactive: 106%. The result for `Cc1c(C(=O)N2CCC(C)CC2)c(S(=O)(=O)N2CCN(c3cccc(Cl)c3)CC2)c(C)n1C` reads inactive: 73%; that for `COc1ccc(OC)c(NC(=O)CCc2nc(-c3ccc(C)cc3)no2)c1`, inactive: 84%; that for `Cc1ccn2c(Nc3ccc4c(c3)OCCO4)c(-c3ccc(C)s3)nc2c1`, inactive: 126%. Regarding `Cc1ccc2nc(SCC(=O)Nc3ccc(C#N)cc3)[nH]c2c1`, the survival was inactive: 83%. Take `Cc1c(Nc2ncnc3sc4c(c23)CCCC4)c(=O)n(-c2ccccc2)n1C`: the survival is inactive: 102%. To `CCOc1ccc(C(=O)NCc2ccc3c(c2)CCN3C(=O)c2ccc(C)cc2)cc1OCC` belongs inactive: 76%; to `COc1ccc(Nc2cc(C(=O)NCc3ccccc3)c3ccccc3n2)cc1OC`, inactive: 83%.

For the molecule `CC1CCC/C(=C(/C#N)c2nc(-c3ccccc3O)cs2)C1` (stereo not drawn), the survival was inactive: 85%.

As for `O=c1c(S(=O)(=O)c2ccc(Cl)cc2)cn(Cc2ccc(F)cc2)c2ccc(F)cc12`, the survival was inactive: 130%.

For the molecule `COc1ccc(S(=O)(=O)c2cn(Cc3ccccc3)c3cc(F)c(F)cc3c2=O)cc1`, the survival is inactive: 82%. To `CN1C(=O)c2[nH]nc(-c3ccc(F)cc3)c2C1c1ccccn1` (stereo not drawn) belongs inactive: 94%.

As for `CCCCn1c(SCC(=O)Nc2ccc(F)cc2)nc2c(sc3ccccc32)c1=O`, the survival was inactive: 78%.

With `Fc1ccc(Nc2nc(Nc3ccc(F)cc3)nc(N3CCOCC3)n2)cc1`, the survival was inactive: 101%.

In the case of `CC(C)c1ccc(NC(=O)Cn2nnc(C(=O)NCc3cccs3)c2N)cc1`, the survival was inactive: 133%. As to `COc1ccc(NC(=O)C(=O)NCC2(c3ccccc3)CCCC2)c(OC)c1`, the survival was inactive: 99%. The result for `CCOc1ccc(-c2cc(C(=O)N3CCN(c4cccc(C(F)(F)F)c4)CC3)c3ccccc3n2)cc1` reads inactive: 74%.

Take `O=C(CSc1nnc(-c2ccc(Br)cc2)n1-c1ccccc1)c1ccccc1`: the survival was inactive: 97%.

As to `Cc1ccc2oc3c(c(=O)c2c1)C(c1ccc(OCC(N)=O)cc1)N(Cc1ccc2c(c1)OCO2)C3=O` (stereo not drawn), the survival was inactive: 87%.

`CNC(=O)CSc1nnc(NC(=O)Nc2ccccc2)s1`: the survival is inactive: 128%.

`Cc1ccc(N(CC(C)C)S(=O)(=O)c2nnc(NC(=O)c3cccs3)s2)cc1`: the survival was inactive: 42%.

For `COc1ccc(C(=O)NCC(c2ccc3c(c2)OCO3)N2CCN(c3ccc(F)cc3)CC2)cc1` (stereo not drawn), the survival is inactive: 88%. The result for `CC1(C)CC(=O)C2=C(C1)NC1=C(C(=O)CC(C)(C)C1)C2c1ccc2c(c1)OCO2` reads inactive: 106%; that for `COc1cccc(/C=N/NC(=O)COc2c(C)cccc2C)c1O`, inactive: 113%. To `CCc1ccccc1NC(=O)c1cc(-c2ccc3c(c2)OCO3)on1` belongs inactive: 156%. The result for `CC1CCCCN1C(=O)CN1CCN(C)CC1` (stereo not drawn) reads inactive: 116%; that for `CCOc1ccc(/C=C/c2nc(C#N)c(N3CCN(c4ccccc4)CC3)o2)cc1`, inactive: 82%. Regarding `COc1ccc(CNC(=O)CN2C(=O)COc3ccc(S(=O)(=O)N4CCOCC4)cc32)cc1`, the survival was inactive: 101%. For the molecule `CCOCN(C(=O)Cn1cnc2cc(C)c(C)cc21)c1c(C)cccc1CC`, the survival was inactive: 55%. Turning to `COc1ccc(-c2cn3nc(N4CCC(C(=O)Nc5ccc(C)cc5)CC4)sc3n2)cc1`, the survival was inactive: 128%.
